# Experimental data published in PubChem BioAssay AID686979 (National Center for Advancing Translational Sciences (NCATS), 2013).
# Hit rate of the full screen: of about 420,000 compounds, about 50,000 (12%) were called active. The shares of active, inactive and inconclusive entries below differ from those in the screen. The call rests on the fitted dose curve; in most records, active means well fitted inhibition curve with a large enough effect; inconclusive means small, poorly fitted or top-dose-only effect; inactive means flat fitted curve, though single readings scatter. No potency is given beside an inconclusive call; the fits are too rough.
# Experiment: qHTS for Inhibitors of human tyrosyl-DNA phosphodiesterase 1 (TDP1): qHTS in cells in presence of CPT; further: nearly all actives have a fitted effect of over 55% in size
# Settings: chicken DT40 Tdp1-/-;hTDP1 cells + 20 nM CPT, ATP luminescence, 48 h; activity change, negative = growth inhibition: at 46.2 µM (top of the series)
# Summary of the method: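 Chicken DT40 Tdp1-/- cells stably complemented with human TDP1 were seeded at 400 cells/well in medium containing 20 nM camptothecin, exposed to pin-transferred compounds, and grown at 37 °C for at least 48 hr. Viability was read as ATP luminescence.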
# On the % scale 0 is the no-effect control and ±100 the full control effect; potency means the concentration at half of the fitted maximal effect; tags describe the fitted curve by direction and shape.
SMILES,Potency,"activity change, negative = growth inhibition"
COC(=O)c1ccccc1NC(=S)N1CCN(c2ccc(OC)cc2)CC1,inactive,
COc1ccc(S(=O)(=O)N2CCN(CC(=O)Nc3ccc(C)c(F)c3)CC2)cc1,"inconclusive [inhibitor, single point]",
C=CCOc1cccc(C(=O)Nc2ncn[nH]2)c1,inactive,
O=c1[nH]c2ccc(S(=O)(=O)Nc3ccccc3O)cc2[nH]1,"inconclusive [inhibitor, single point]",
O=C(Nc1ccc(Cl)c(S(=O)(=O)N2CCCC2)c1)c1nn(CCO)c(=O)c2ccccc12,"inconclusive [inhibitor, single point]",
Cc1ccc(-c2ccc(/C=N\NC(=O)c3cc4c(ccc5ccccc54)o3)o2)cc1[N+](=O)[O-],active: 10.3 µM,
COc1ccc(C(=O)Nc2ncc3c(n2)-c2ccccc2CC3)cc1,inactive,
CN1C(=O)N2CN(C3CCCCC3)CN3C(=O)N(C)C1C23 (stereo not given),"inconclusive [inhibitor, single point]",
O=C(CSCc1cnn(-c2ccccc2)c1-n1cccc1)Nc1ccc(F)cc1F,"inconclusive [inhibitor, single point]",
CNC(=S)N(Cc1ccc(OC)cc1)C1CC(=O)N(c2ccc(OC)cc2)C1=O (stereo not given),"inconclusive [inhibitor, single point]",
O=C(Nc1cccc(Cl)c1)c1nc[nH]c1C(=O)N1CCN(c2ccccc2)CC1,inactive,
CCCc1cc(C(=O)Cc2ccc(C(=O)OCC)o2)c(O)cc1O,inactive,
NC(Cc1ccc(F)cc1)c1csc(Nc2nccc(C(F)(F)F)n2)n1 (stereo not given),"inconclusive [inhibitor, single point]",
Cc1ccc(CNC(=O)c2c(-c3ccccc3Cl)noc2C)cc1,"inconclusive [inhibitor, single point]",
O=C(NCc1ccc(F)cc1)C1CCCN(C(=O)NCc2ccccc2)C1 (stereo not given),inactive,
Cc1onc(-c2ccc(Cl)cc2)c1-c1ccnc(SCC(=O)Nc2ccc(C(C)C)cc2)n1,"inconclusive [inhibitor, partial curve]",
Cc1cccc(C(=O)Nc2cccc(OCc3cc(=O)n4c(C)csc4n3)c2)c1,"inconclusive [inhibitor, single point]",
Cc1cc(C)c(NC(=O)COc2ccccc2C(=O)Nc2ccc3c(c2)oc2ccccc23)c(C)c1,"inconclusive [inhibitor, single point]",
Cc1ccc(-c2csc3ncnc(N4CCN(S(=O)(=O)c5cccs5)CC4)c23)cc1,"inconclusive [inhibitor, single point]",
COc1ccc2c(c1OC)C(=O)OC2Nc1nc(-c2cccc([N+](=O)[O-])c2)cs1 (stereo not given),inactive,
CCc1ccc(NC(=O)c2cc3c(=O)n(Cc4cccnc4)ccc3nc2C)cc1,"inconclusive [inhibitor, single point]",
O=C(c1ccc(F)cc1)C1CCN(CCn2c(=S)[nH]c3ccccc3c2=O)CC1,"inconclusive [inhibitor, single point]",

SMILES,Potency,"activity change, negative = growth inhibition"
CCc1ccc(NC(=O)C(=O)NCC(c2cccnc2)N2CCOCC2)cc1 (stereo not given),"inconclusive [inhibitor, single point]",
CCOc1cc2c(cc1OC)C(c1cccc([N+](=O)[O-])c1)NCC2 (stereo not given),"inconclusive [inhibitor, single point]",
O=C(c1cccc(F)c1)N1CCN(C(=O)c2cc(-c3ccc(Cl)cc3Cl)on2)CC1,"inconclusive [inhibitor, single point]",
COc1ccc(Nc2nc(N)nc(CSc3nc4cc(OC)ccc4s3)n2)cc1,active: 11.6 µM,
O=C(c1ccccc1)c1ccc(Sc2ccc([N+](=O)[O-])cc2)cc1,"inconclusive [inhibitor, single point]",
Cc1cc(=O)[nH]c(SCC(=O)Nc2ccc3c(c2)CCC3)c1C#N,inactive,
COCc1cccc(-c2csc(C(C)(O)c3ccccc3)n2)c1 (stereo not given),"inconclusive [inhibitor, partial curve]",
Cc1ccc(S(=O)(=O)CCC(=O)Nc2nnc(-c3cccs3)o2)cc1,"inconclusive [inhibitor, single point]",
O=C(Nc1cccnc1)c1cc2nc(C3CC3)cc(C(F)(F)F)n2n1,"inconclusive [inhibitor, partial curve, poor fit]",
COc1ccc(CC(=O)Nc2ccc(-c3cn4ccccc4n3)cc2)cc1,active: 13 µM,
COc1ccc(N2CCN(C(=O)CCS(=O)(=O)c3ccc(C)cc3)CC2)cc1,"inconclusive [inhibitor, partial curve]",
O=[N+]([O-])c1ccc(S(=O)(=O)Nc2ccc(-c3ccccc3)cc2)cc1,"inconclusive [inhibitor, single point]",
COc1cccc(NC(=O)COC(=O)c2cc(=O)c3ccccc3o2)c1,"inconclusive [inhibitor, full curve, poor fit]",
NCCCC[C@H]1CNC(=S)N1CCCCC1CCCCC1,active: 9.2 µM,
CN1CCN(CCCCOc2ccc(Br)cc2)CC1,"inconclusive [inhibitor, single point]",
Nc1ccccc1-n1nc2ccc3ccccc3c2n1,"inconclusive [inhibitor, partial curve]",
Cc1nn(Cc2ccccc2Cl)c2sc(C(=O)NCCCn3ccnc3)cc12,"inconclusive [inhibitor, single point]",
COc1ccc(-c2noc(CCC(=O)NCc3ccc(OC)cc3OC)n2)cc1,"inconclusive [inhibitor, partial curve]",
CCN(CC)CCOC(c1ccccc1)c1ccc(C)cc1 (stereo not given),"inconclusive [inhibitor, single point]",
CC(C)c1ccc(NC(=O)CSc2nc3ncccc3[nH]2)cc1,"inconclusive [inhibitor, single point]",
CO/N=C(\c1nonc1N)N1CCN(c2ccc([N+](=O)[O-])cc2Cl)CC1,"inconclusive [inhibitor, single point]",
CCn1cc(C(=O)N(C)Cc2ccccc2)c(=O)c2cc(S(=O)(=O)N3CCCCCC3)ccc21,inactive,

SMILES,Potency,"activity change, negative = growth inhibition"
COc1ccc(OCC(=O)NCCS(=O)(=O)N2CCN(c3cccc(Cl)c3)CC2)cc1,"inconclusive [inhibitor, single point]",
CCCN1CNc2c(c(=O)[nH]c(=S)n2CCc2ccc(Cl)cc2)C1,"inconclusive [inhibitor, partial curve]",
CCCN(CCC)CC(O)Cn1cc(/C=C/C(=O)c2ccc(OCC)cc2)c2ccccc21 (stereo not given),active: 5.8 µM,
CN(CC(=O)Nc1cccc(F)c1)C(=O)c1cccnc1Sc1ccccc1Cl,,inconclusive: -36.2% [inhibitor]
Cc1ccccc1C1NS(=O)(=O)N=C1N (stereo not given),"inconclusive [inhibitor, full curve, poor fit]",
COc1ccc(N2CCN(S(=O)(=O)CCNC(=O)COc3ccccc3C)CC2)cc1,"inconclusive [inhibitor, single point]",
CCOC(=O)c1c(C)sc(-c2c(-c3ccc(OC)c(F)c3)[nH]c3c2c(=O)[nH]c(=O)n3C)c1O,active: 16.4 µM,
O=C(Nc1ccc(F)c(Cl)c1)C1CCN(c2ncnc3c2nc2n3CCCCC2)CC1,"inconclusive [inhibitor, single point]",
O=C(Cc1ccc(Cl)cc1Cl)Nc1ccc(OC(F)F)c(Cl)c1,"inconclusive [inhibitor, single point]",
CC(C)Oc1ccc(CNC(=O)c2ccc3nc(Cc4ccccc4)oc3c2)cc1,"inconclusive [inhibitor, single point]",
O=c1cc(-c2ccc([N+](=O)[O-])cc2)c2cc3c(cc2[nH]1)OCCO3,,inconclusive: -37.5% [inhibitor]
CCC(CC)C(=O)Nc1ccc2nc(SCC(=O)N3c4ccccc4CC3C)sc2c1 (stereo not given),active: 11.6 µM,
O=C(O)CNC(=O)/C(=C\c1ccc2c(c1)OCO2)NC(=O)c1ccc(Br)cc1,inactive,
COc1cc(/C=C/c2ccc3cccc(O)c3n2)ccc1O,"inconclusive [inhibitor, single point]",
Cc1ccc(-c2nn3c(=O)cc(CN4CCN(C(=O)Nc5cc(Cl)ccc5C)CC4)nc3s2)cc1,,inconclusive: -32.4% [inhibitor]
CCOc1ccc(-c2nn3c(-c4ccccc4)nnc3s2)cc1,"inconclusive [inhibitor, single point]",
COc1ccc(C(CCN2CCN(c3ccccc3)CC2)c2c(OC)cc(OC)c3c(-c4ccccc4)cc(=O)oc23)cc1 (stereo not given),"inconclusive [inhibitor, single point]",
CS(=O)(=O)N(CC(=O)N1CCN(c2ccc(F)cc2)CC1)c1ccc(F)c(Cl)c1,,inconclusive: -33.7% [inhibitor]
CCN1C(=O)c2cccc3c(S(=O)(=O)N(C(=O)c4cccnc4)c4ccc(OC)cc4)ccc1c23,"inconclusive [inhibitor, single point]",
Cc1cc(C)cc(OCC(=O)N(Cc2ccc(C)o2)C2CCS(=O)(=O)C2)c1 (stereo not given),"inconclusive [inhibitor, single point]",
COCCn1c(=O)c(-c2ccccc2)nc2cnc(N3CCN(C)CC3)nc21,"inconclusive [inhibitor, single point]",
